The record followed here is article PMC6919601, “Identification of Plasmodium dipeptidyl aminopeptidase allosteric inhibitors by high throughput screening” (PLoS ONE, 2019).

SMILES strings stand for the structures. About 230 (0.21%) of roughly 110,000 compounds showed an effect of 50% or more. Some of the results follow.
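Further: 30 min substrate incubation versus DMSO and 10 µM JCP410 controls.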

Chain of DPAP1 (Q8IIJ9 whole entry, looked up): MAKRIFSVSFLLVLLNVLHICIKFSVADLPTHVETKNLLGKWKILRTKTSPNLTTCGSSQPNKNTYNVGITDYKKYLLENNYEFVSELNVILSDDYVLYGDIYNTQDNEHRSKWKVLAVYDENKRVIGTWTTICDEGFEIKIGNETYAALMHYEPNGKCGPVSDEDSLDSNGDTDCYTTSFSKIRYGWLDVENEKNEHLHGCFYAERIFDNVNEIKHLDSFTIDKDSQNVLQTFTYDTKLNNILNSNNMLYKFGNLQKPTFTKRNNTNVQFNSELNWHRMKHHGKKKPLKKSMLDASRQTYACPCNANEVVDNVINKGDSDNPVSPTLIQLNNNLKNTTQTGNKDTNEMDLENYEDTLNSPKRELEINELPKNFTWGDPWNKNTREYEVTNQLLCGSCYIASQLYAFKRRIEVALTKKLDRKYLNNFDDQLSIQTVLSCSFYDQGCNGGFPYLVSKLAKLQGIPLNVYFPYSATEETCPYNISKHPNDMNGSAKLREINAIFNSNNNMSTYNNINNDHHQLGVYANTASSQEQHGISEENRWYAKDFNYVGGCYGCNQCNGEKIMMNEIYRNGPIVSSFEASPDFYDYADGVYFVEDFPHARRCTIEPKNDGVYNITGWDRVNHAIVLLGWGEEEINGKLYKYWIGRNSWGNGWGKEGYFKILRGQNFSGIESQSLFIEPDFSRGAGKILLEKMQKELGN

The assay has as its target DPAP1 (Plasmodium falciparum, UniProt Q8IIJ9). The experiment in a line: primary screen, percent inhibition; read by cleavage of a fluorogenic dipeptide substrate; higher = more effect of the substance. Set-up: species or system P. falciparum D10 trophozoite lysates; single well.
Turning to `Fc1ccc(-c2nnc(-c3ccc(Cl)cc3)o2)cc1`, the “% Inhibition @ 10 uM” value was determined as 0.815%.

With `CCCCn1c(CN2CC(C)OC(C)C2)nc2c1c(=O)[nH]c(=O)n2C` (stereo not drawn), the “% Inhibition @ 10 uM” value is recorded as -2.92%.

As for `Cn1c(OCc2ccc3c(c2)OCO3)nc2c1c(=O)n(Cc1ccccc1F)c(=O)n2C`, the “% Inhibition @ 10 uM” value turned out to be 25.6%.

For `O=C(CN(C1CCCCC1)S(=O)(=O)c1ccc(Cl)cc1)N1CCCCC1`, the “% Inhibition @ 10 uM” value is -3.85%.

Turning to `CC(=O)c1cnn(-c2cc(Oc3cccc(C)c3)ncn2)c1C`, the “% Inhibition @ 10 uM” value is given as -5.34%.

For `Cc1cc(-c2ccc(C)c(S(=O)(=O)N(C)C3CCCCC3)c2)on1`, the “% Inhibition @ 10 uM” value is listed as 2.35%.

Turning to `Cc1cccc(C)c1NC(=O)c1ccc(F)cc1`, the “% Inhibition @ 10 uM” value is -7.5%.

As to `CCOC(=O)C1=C(CN2CCC(c3ccccc3)C2)NC(=O)NC1c1ccccc1` (stereo not drawn), the “% Inhibition @ 10 uM” value is on record as 2.12%.

For `CCC(C)Nc1nc2c(-c3ccc(Cl)cc3)nnn2c2ccccc12` (stereo not drawn), the “% Inhibition @ 10 uM” value is given as -1.21%.

As to `Cc1c(C(=O)NCCCN2CCCCCC2)oc2ccc3nc(N(C)C)sc3c12`, the “% Inhibition @ 10 uM” value is 11.8%.

On to `O=C(O)c1cccc(N2C(=O)/C(=C\c3ccc(Cl)cc3)SC2=S)c1`, for which the “% Inhibition @ 10 uM” value is given as 2.26%.

Consider `O=S(=O)(Nc1ccc2c(c1)OCCO2)c1cccc(Cl)c1`, for which the “% Inhibition @ 10 uM” value is on record as -3.87%.

With `O=C(NCCOc1ccccc1)c1cc(S(=O)(=O)N2CCOCC2)ccc1F`, the “% Inhibition @ 10 uM” value is given as 3.47%.

For the compound `Cc1ccc(OCC(=O)Nc2ccc(Cl)c(NC(=O)c3ccccc3)c2)cc1`, the “% Inhibition @ 10 uM” value is on record as 9.94%.

Consider `O=C(NC1(C(=O)NC2CCCC2)CCCCC1)c1ccccc1`, for which the “% Inhibition @ 10 uM” value is -4.43%.

In the case of `CCN(CC)C(=O)C1c2cc(OC)c(OC)cc2C(=O)N(C)C1c1ccc(OC)c(OC)c1` (stereo not drawn), the “% Inhibition @ 10 uM” value was found to be 2.06%.

On to `CCOC(=O)C1CCCN(Cc2ccccc2F)C1` (stereo not drawn), for which the “% Inhibition @ 10 uM” value is listed as -1.77%.

Take `CC(C)C[C@H](NC(=O)c1ccc(-c2ccccc2Cl)cc1Cl)C(=O)NCC#N`: the “% Inhibition @ 10 uM” value was -5.2%.

Consider `CCOC(=O)c1c(C)c(-c2ccccc2)n(CC(=O)N2CCN(CC)CC2)c1C`, for which the “% Inhibition @ 10 uM” value is 1.51%.

On to `O=C(CCn1ccc2cc(S(=O)(=O)N3CCCC3)ccc21)NC1CCCc2ccccc21` (stereo not drawn), for which the “% Inhibition @ 10 uM” value is on record as -10.9%.

Consider `O=Nc1c2nc3ccccc3[nH]c-2c2ccccc12`, for which the “% Inhibition @ 10 uM” value is recorded as -1.69%.

As for `Cc1ccc(-n2nnc3ccccc3c2=O)cc1C`, the “% Inhibition @ 10 uM” value is on record as 1.8%.

As for `COCCNC(=O)C1CCN(c2nnc(-n3cccc3)s2)CC1`, the “% Inhibition @ 10 uM” value is on record as -4.04%.

For the compound `O=C(CCc1ccccc1)N1CCCN(C(=O)CCc2ccccc2)CC1`, the “% Inhibition @ 10 uM” value was -5.14%.

In the case of `COc1cc(CN2CCN(c3ccc([N+](=O)[O-])cc3)CC2)cc(Br)c1O`, the “% Inhibition @ 10 uM” value was -4.35%.

As to `COc1ccc(-c2csc(Nc3ccccc3OC)n2)cc1Br`, the “% Inhibition @ 10 uM” value is reported as 7.42%.

In the case of `CC(=O)Nc1ccccc1/C=C/c1ccc2cccc(OC(C)=O)c2n1`, the “% Inhibition @ 10 uM” value is 4.88%.

Turning to `COc1ccc(CO/C(O)=C2\C(C)=Nc3nnnn3C2c2cc(Cl)ccc2OC(F)F)cc1` (stereo not drawn), the “% Inhibition @ 10 uM” value is reported as -0.465%.

With `Cc1ccc(-n2nc3c(c2NC(=O)c2ccc(OC(C)C)cc2)CS(=O)(=O)C3)c(C)c1`, the “% Inhibition @ 10 uM” value is reported as -0.812%.

For the compound `Cc1ccccc1C(=O)Nc1ccc(Cl)cn1`, the “% Inhibition @ 10 uM” value is given as -0.268%.

Consider `Cc1ccsc1/C=C/C(=O)NCC(=O)O`, for which the “% Inhibition @ 10 uM” value is recorded as -0.971%.

As for `Cc1cc(N2C(=O)CC(Cc3ccc(Cl)cc3)C2=O)no1` (stereo not drawn), the “% Inhibition @ 10 uM” value is -1.33%.

On to `O=c1oc2ccccc2n1CCCOc1ccccc1`, for which the “% Inhibition @ 10 uM” value is -4.6%.

Take `Cc1nc2ccccc2c2oc(C(=O)NC3CCCc4ccccc43)cc12` (stereo not drawn): the “% Inhibition @ 10 uM” value is listed as -5.25%.

Consider `C=CCNCC1OCc2ccccc2CO1`, for which the “% Inhibition @ 10 uM” value is -3.49%.

In the case of `CCOP(=O)(OCC)C(Nc1cccc(C(F)(F)F)c1)c1ccc(C)cc1` (stereo not drawn), the “% Inhibition @ 10 uM” value is -0.744%.

On to `O=C(/C=C/c1ccccc1Cl)NC1CC2CCC1C2` (stereo not drawn), for which the “% Inhibition @ 10 uM” value amounted to 5.37%.

Regarding `O=C(NCCc1ccsc1)c1cnn2ccccc12`, the “% Inhibition @ 10 uM” value is listed as -8.42%.

Consider `O=C(COc1ccc(Cl)cc1)N(Cc1cccc(F)c1)C1CCS(=O)(=O)C1` (stereo not drawn), for which the “% Inhibition @ 10 uM” value is reported as -3.12%.

Consider `CCC(CC)C(=O)N1CCN(c2cccc(C)c2C)CC1`, for which the “% Inhibition @ 10 uM” value is reported as -3.72%.

In the case of `Cc1ccc(S(=O)(=O)N(CC(C)C)CC(C)C)cc1[N+](=O)[O-]`, the “% Inhibition @ 10 uM” value is -2.55%.

Regarding `Cc1cc(C)c(S(=O)(=O)NCc2ccc3c(c2)OCO3)cc1Br`, the “% Inhibition @ 10 uM” value was -3.5%.

For `O=C(CCCCC(=O)Nc1ccc2c(c1)OCCO2)Nc1ccc2c(c1)OCCO2`, the “% Inhibition @ 10 uM” value was found to be 0.82%.

Consider `CCCCN(CCCC)C(=O)c1cc(S(=O)(=O)N2CCCCC2)c[nH]1`, for which the “% Inhibition @ 10 uM” value is -4.37%.

With `COc1ccc2ccccc2c1C1C(C(C)=O)=C(C)N=c2s/c(=C\c3ccco3)c(=O)n21` (stereo not drawn), the “% Inhibition @ 10 uM” value is reported as 6.04%.

For the compound `CCOc1ccccc1C1C2=C(O)CCCC2=Nc2ncnn21` (stereo not drawn), the “% Inhibition @ 10 uM” value was determined as 3.32%.

Take `CCc1ccc(S(=O)(=O)N2CCSC2c2ccc(OC)c(Br)c2)cc1` (stereo not drawn): the “% Inhibition @ 10 uM” value is -1.6%.

With `CC1(NC(=O)NCCCCCCNC(=O)NC2(C)CCS(=O)(=O)C2)CCS(=O)(=O)C1` (stereo not drawn), the “% Inhibition @ 10 uM” value is given as -1.11%.

On to `CN(C)CCN(C(=O)c1ccc(F)cc1)c1nc2c(F)cc(F)cc2s1`, for which the “% Inhibition @ 10 uM” value is listed as -1.34%.

As to `CC(C)(C)NC(=O)CC12CC3CC(C1)CC(CC(=O)NC(C)(C)C)(C3)C2`, the “% Inhibition @ 10 uM” value is 0.962%.

For the compound `Oc1ccc(-c2nc3c4ccccc4c4ccccc4c3[nH]2)cc1`, the “% Inhibition @ 10 uM” value stood at 6.23%.
